The source of these data is paper PMC7900159.

The target in test [1] is T1, FLAG-tagged-flotillin-1 (mouse) (UniProt O08917).
T1 sequence: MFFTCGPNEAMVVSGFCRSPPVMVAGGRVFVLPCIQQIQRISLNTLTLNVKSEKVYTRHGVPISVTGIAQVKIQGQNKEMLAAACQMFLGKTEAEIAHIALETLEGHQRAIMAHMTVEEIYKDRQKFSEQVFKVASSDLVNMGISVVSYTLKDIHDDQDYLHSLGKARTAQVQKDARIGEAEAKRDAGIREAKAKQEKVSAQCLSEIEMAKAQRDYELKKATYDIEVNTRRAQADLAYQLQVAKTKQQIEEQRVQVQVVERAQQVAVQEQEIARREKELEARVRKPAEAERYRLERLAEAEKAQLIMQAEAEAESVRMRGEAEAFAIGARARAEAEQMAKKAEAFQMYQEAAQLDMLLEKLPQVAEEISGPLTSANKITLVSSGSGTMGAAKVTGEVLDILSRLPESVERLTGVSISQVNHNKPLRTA
Briefly: co-IP; HEK 293T cells transfected; 1% NP-40 lysis buffer with 150 mM NaCl; IP with anti-Flag beads, washes with 500 mM NaCl; immunoblot with anti-GFP and anti-Flag. Background: A western blot detects proteins with antibodies after separation by electrophoresis.

Test [2] has as its target T2, flotillin-1, endogenous in mouse DRG neurons (mouse (endogenous in DRG neurons)) (UniProt O08917).
T2 sequence: T1 sequence
Briefly: co-IP; endogenous proteins of mouse DRG neurons; IP with anti-TRPV2, anti-Flotillin-1 or IgG as a control, immunoblot.

In test [3] the target is Flag-tagged full-length TRPV2 (rat) (UniProt Q9WUD2). Kind of test: co-IP; HEK 293T cells transfected; 1% NP-40 lysis buffer with 150 mM NaCl; IP with anti-Flag beads, washes with 500 mM NaCl; immunoblot with anti-GFP and anti-Flag.
Test [4] deals with T3, TRPV2, endogenous in mouse DRG neurons (mouse (endogenous in DRG neurons)) (UniProt Q9WTR1).
T3 sequence: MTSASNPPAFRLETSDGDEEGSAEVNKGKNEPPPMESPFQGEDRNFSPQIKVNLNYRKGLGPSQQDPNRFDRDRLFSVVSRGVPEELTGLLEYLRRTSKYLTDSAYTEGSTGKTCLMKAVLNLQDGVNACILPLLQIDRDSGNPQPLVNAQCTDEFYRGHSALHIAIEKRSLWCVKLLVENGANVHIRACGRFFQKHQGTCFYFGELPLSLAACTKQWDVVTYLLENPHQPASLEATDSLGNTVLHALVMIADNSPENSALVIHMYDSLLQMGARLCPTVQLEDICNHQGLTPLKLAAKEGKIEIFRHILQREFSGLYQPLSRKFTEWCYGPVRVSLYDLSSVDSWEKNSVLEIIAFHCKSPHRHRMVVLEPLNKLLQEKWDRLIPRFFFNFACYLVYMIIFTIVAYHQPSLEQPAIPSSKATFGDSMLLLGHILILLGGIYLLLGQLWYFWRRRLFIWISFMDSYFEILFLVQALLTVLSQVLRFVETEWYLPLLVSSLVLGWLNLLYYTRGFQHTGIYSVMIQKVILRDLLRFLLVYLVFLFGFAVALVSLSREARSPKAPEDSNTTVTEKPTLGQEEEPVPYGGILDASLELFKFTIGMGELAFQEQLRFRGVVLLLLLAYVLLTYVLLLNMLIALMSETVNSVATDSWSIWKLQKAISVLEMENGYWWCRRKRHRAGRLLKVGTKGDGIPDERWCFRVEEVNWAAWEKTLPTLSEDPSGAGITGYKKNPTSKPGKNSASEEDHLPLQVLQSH
Briefly: co-IP; endogenous proteins of mouse DRG neurons; IP with anti-TRPV2, anti-Flotillin-1 or IgG as a control, immunoblot.

Another test addresses Flag-tagged TRPV1 (rat) (UniProt O35433). Kind of test: co-IP; HEK 293T cells transfected; 1% NP-40 lysis buffer with 150 mM NaCl; IP with anti-Flag beads, washes with 500 mM NaCl; immunoblot with anti-GFP and anti-Flag.
Test [5] has as its target Flag-tagged full-length TRPV2 (rat) (UniProt Q9WUD2). Kind of test: surface biotinylation with NeutrAvidin pull-down; HEK 293T cells co-expressing Flag-TRPV2 and flotillin-1-GFP; surface proteins labelled with Sulfo-NHS-LC-Biotin, isolated from lysates with NeutrAvidin agarose beads, immunoblot.
For test [6], the target named is T4, TRPV2 N-terminus (aa 1–387) fused to the GAL4 DNA binding domain (mouse) (UniProt Q9WTR1).
T4 sequence: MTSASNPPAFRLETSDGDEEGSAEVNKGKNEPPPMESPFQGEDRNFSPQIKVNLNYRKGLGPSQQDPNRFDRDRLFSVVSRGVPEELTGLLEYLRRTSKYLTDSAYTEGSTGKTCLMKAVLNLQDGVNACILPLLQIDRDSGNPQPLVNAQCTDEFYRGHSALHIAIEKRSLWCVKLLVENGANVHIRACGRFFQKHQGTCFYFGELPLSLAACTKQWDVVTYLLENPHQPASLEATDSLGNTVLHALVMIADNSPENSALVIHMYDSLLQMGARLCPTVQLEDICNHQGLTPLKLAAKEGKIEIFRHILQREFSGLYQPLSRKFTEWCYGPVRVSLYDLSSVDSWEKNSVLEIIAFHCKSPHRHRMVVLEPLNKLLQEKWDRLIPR
Briefly: two-hybrid; Matchmaker GAL4 screen of a mouse DRG cDNA library (pGADT7, AH109) with the bait in pGBKT7 (Y187); mating, selection on TDO then QDO with X-α-Gal, 30°C.

No constants are given. Whether binding was seen depends on the method and setting. For some of these results: In cells and extracts the contact can be indirect. Some entries that bind do so weakly or less than the wild type. For some of these results: Sequences can lack the tags named with a protein.

Take “GFP-tagged TRPV2 transmembrane domains 1–4 (aa 388–520) (from UniProt Q9WUD2 388-520) (domain or fragment)”: the binding result in test [1] is listed as “binds”.

For “GFP-tagged TRPV2 C-terminus (aa 650–762) (from UniProt Q9WUD2 650-761) (domain or fragment)”, in test [1], the binding entry is on record as “no binding”.

In the case of “GFP-tagged TRPV2 N-terminus (aa 1–387) (from UniProt Q9WUD2 1-387) (domain or fragment)”, the binding entry in test [1] was “binds”.

Consider “GFP-tagged TRPV2 pore region (aa 521–649) (from UniProt Q9WUD2 521-649) (domain or fragment)”, for which the binding result in test [1] is “no binding”.

B1: TRPV2, endogenous in mouse DRG neurons (protein, UniProt Q9WTR1 1-756)
chain: T3 sequence
For the molecule B1, the binding result in test [2] was “binds”.

B2: GFP-tagged flotillin-2 (protein, UniProt Q60634 1-428)
chain: MGNCHTVGPNEALVVSGGCCGSDYKQYVFGGWAWAWWCISDTQRISLEIMTLQPRCEDVETAEGVALTVTGVAQVKIMTEKELLAVACEQFLGKNVQDIKNVVLQTLEGHLRSILGTLTVEQIYQDRDQFAKLVREVAAPDVGRMGIEILSFTIKDVYDKVDYLSSLGKTQTAVVQRDADIGVAEAERDAGIREAECKKEMLDVKFMADTKIADSKRAFELQKSAFSEEVNIKTAEAQLAYELQGAREQQKIRQEEIEIEVVQRKKQIAVEAQEILRTDKELIATVRRPAEAEAHRIQQIAEGEKVKQVLLAQAEAEKIRKIGEAEAAVIEAMGKAEAERMKLKAEAYQKYGDAAKMALVLEALPQIAAKISAPLTKVDEIVVLSGDNSKVTSEVNRLLAELPASVHALTGVDLSKIPLIKNATGAQV
Take B2: the binding result in test [3] is “no binding”.

B3: flotillin-1 SPFH domain (aa 1–189) fused with GFP (domain or fragment, UniProt O08917 1-189)
chain: MFFTCGPNEAMVVSGFCRSPPVMVAGGRVFVLPCIQQIQRISLNTLTLNVKSEKVYTRHGVPISVTGIAQVKIQGQNKEMLAAACQMFLGKTEAEIAHIALETLEGHQRAIMAHMTVEEIYKDRQKFSEQVFKVASSDLVNMGISVVSYTLKDIHDDQDYLHSLGKARTAQVQKDARIGEAEAKRDAGI
As for B3, the binding entry in test [3] was “binds”.

B4: flotillin-1, endogenous in mouse DRG neurons (protein, UniProt O08917 1-428)
chain: T1 sequence
B4: in test [4], the binding entry is recorded as “binds”.

B5: flotillin-1-GFP (protein, UniProt O08917 1-428)
chain: T1 sequence
On to B5, for which the binding entry is recorded as “no binding” with Flag-tagged TRPV1 (rat), “binds” in test [3] and “binds” in test [5].

B6: flotillin-1 library clone, amino acid residues 1–249, fused to the GAL4 activation domain (domain or fragment, UniProt O08917 1-249)
chain: MFFTCGPNEAMVVSGFCRSPPVMVAGGRVFVLPCIQQIQRISLNTLTLNVKSEKVYTRHGVPISVTGIAQVKIQGQNKEMLAAACQMFLGKTEAEIAHIALETLEGHQRAIMAHMTVEEIYKDRQKFSEQVFKVASSDLVNMGISVVSYTLKDIHDDQDYLHSLGKARTAQVQKDARIGEAEAKRDAGIREAKAKQEKVSAQCLSEIEMAKAQRDYELKKATYDIEVNTRRAQADLAYQLQVAKTKQQI
On to B6, for which, in test [6], the binding result is “binds”.

B7: flotillin-1 Flotillin domain (aa 190–427) fused with GFP (domain or fragment, UniProt O08917 190-427)
chain: REAKAKQEKVSAQCLSEIEMAKAQRDYELKKATYDIEVNTRRAQADLAYQLQVAKTKQQIEEQRVQVQVVERAQQVAVQEQEIARREKELEARVRKPAEAERYRLERLAEAEKAQLIMQAEAEAESVRMRGEAEAFAIGARARAEAEQMAKKAEAFQMYQEAAQLDMLLEKLPQVAEEISGPLTSANKITLVSSGSGTMGAAKVTGEVLDILSRLPESVERLTGVSISQVNHNKPLRT
With B7, the binding entry in test [3] is recorded as “no binding”.
